About 14,000 (4.5%) of roughly 310,000 compounds showed an effect of 50% or more. The effect is printed as a negative number. This is one part of the list.
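Further: peak tail current of the secondary pulse compared with the same well before compound.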

The target in the assay is human ether-à-go-go-related gene (hERG) potassium channel (human, UniProt Q12809). Briefly: primary screen, population patch clamp on CHO cells stably expressing hERG.
Chain of human ether-à-go-go-related gene (hERG) potassium channel (Q12809 whole entry, looked up): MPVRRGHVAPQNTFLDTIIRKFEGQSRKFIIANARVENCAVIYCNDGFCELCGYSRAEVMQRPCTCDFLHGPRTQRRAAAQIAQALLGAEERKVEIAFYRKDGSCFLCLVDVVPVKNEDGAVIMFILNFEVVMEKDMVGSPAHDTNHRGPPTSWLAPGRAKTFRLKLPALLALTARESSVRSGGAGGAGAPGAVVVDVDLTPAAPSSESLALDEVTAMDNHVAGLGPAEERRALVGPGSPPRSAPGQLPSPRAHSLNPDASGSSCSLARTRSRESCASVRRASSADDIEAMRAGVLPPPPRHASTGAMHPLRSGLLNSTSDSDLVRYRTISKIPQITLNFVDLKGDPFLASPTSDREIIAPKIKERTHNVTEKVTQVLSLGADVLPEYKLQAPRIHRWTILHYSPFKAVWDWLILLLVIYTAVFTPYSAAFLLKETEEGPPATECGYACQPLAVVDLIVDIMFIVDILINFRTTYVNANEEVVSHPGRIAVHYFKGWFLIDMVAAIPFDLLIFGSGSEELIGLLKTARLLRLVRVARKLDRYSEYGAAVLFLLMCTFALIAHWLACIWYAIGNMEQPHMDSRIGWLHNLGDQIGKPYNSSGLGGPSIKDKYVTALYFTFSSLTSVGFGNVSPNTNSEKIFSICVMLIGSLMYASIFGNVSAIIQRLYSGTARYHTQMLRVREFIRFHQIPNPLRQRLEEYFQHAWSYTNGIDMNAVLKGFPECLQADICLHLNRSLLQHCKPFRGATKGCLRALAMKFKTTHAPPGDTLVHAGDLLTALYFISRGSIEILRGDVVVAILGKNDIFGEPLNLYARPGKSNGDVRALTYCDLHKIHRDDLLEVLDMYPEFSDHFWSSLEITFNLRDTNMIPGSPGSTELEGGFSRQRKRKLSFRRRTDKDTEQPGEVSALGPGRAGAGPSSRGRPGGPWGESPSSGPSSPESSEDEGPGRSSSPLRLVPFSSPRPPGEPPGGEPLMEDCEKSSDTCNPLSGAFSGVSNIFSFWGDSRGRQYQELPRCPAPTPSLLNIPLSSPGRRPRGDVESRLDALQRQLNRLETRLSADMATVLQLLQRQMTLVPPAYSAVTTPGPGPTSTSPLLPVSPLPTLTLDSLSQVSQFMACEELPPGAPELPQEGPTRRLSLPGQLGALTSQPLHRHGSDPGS
Turning to `Cc1ccc(-c2ccc(OC(=O)c3ccc(=O)[nH]c3)c(C)c2)cc1`, the “hERG current change (%, negative = inhibition) at 10uM” value worked out at 17.8%. As to `CCc1cccc(C)c1N(C(=O)Cn1c(=O)[nH]c2ccccc21)C(C)COC` (stereo not shown), the “hERG current change (%, negative = inhibition) at 10uM” value is -4.31%. With `O=C1NC(=S)N/C1=C/c1cccn1-c1ccc([N+](=O)[O-])cc1` the figure was 12.8%; with `COc1ccccc1N=C1NC(=O)/C(=C/c2ccc(N(C)C)cc2)S1`, 10.5%. With `O=C(c1ccco1)N1CCN(C(=S)NC2CC3CCC2C3)CC1` (stereo not shown) the figure was -67.3%. With `FC(F)(F)c1cccnc1N1CCN(c2ncnc3nc[nH]c23)CC1` the figure was 4.69%; with `CCOc1ccc(CNC(=O)CCCn2nc(CC)n3c(cc4occc43)c2=O)cc1`, -24.7%; with `Cc1nn(-c2ccccc2)c(C)c1NC(=O)COc1ccc(Cl)cc1Cl`, -28.6%. Turning to `Cc1cccc(NC(=O)c2nc[nH]c2C(=O)N2CCC(C)CC2)c1`, the “hERG current change (%, negative = inhibition) at 10uM” value came out at 1.29%.

Take `O=C1SCC(c2ccccc2)=NN1Cc1ccccc1`: the “hERG current change (%, negative = inhibition) at 10uM” value is 6.54%.

`CCCCN(CC)C(=O)c1cc2c(=O)[nH]c3ccc(C)cc3c2s1`: the “hERG current change (%, negative = inhibition) at 10uM” value was determined as 8.37%.

Regarding `CCOC(=O)/C(C#N)=C1\CCCN1CC(N)=S`, the “hERG current change (%, negative = inhibition) at 10uM” value worked out at 2.57%. With `Clc1ccc(Cn2ccc3ccccc32)cn1` the figure was -5.12%. With `CSCCC(NS(=O)(=O)/C=C/c1ccccc1)C(=O)N1CCC(C)CC1` (stereo not shown) the figure was -36.5%; with `CCN(CC)C(=O)Oc1cc(=O)n2c3c(cccc13)CCC2`, -12.5%; with `O=C(COC(=O)CNS(=O)(=O)/C=C/c1ccccc1)Nc1cc(S(=O)(=O)N2CCCCC2)ccc1Cl`, 1.25%. With `CC(C)Cc1nnc(NC(=O)CN2C(=O)NC3(CC(C)CC(C)(C)C3)C2=O)s1` (stereo not shown) the figure was -20.5%. For `NC(=O)c1nsc(C(=O)N(c2ccccc2)C(C(=O)NCc2ccc(F)cc2)c2ccco2)c1N` (stereo not shown), the “hERG current change (%, negative = inhibition) at 10uM” value came out at 12.2%. With `CCN(CC)C(=O)CN(c1ccc(Cl)cc1)S(=O)(=O)c1ccccc1` the figure was -21.4%. With `COc1ccc(O)c(/C=N/NC(=O)c2c(C)nnn2-c2nonc2N)c1` the figure was 27.1%. With `CC(=O)c1cc(CN2CCN(C3CCN(C(C)C)CC3)C(CCO)C2)cs1` (stereo not shown) the figure was -3.56%. As for `O=C(NCCS(=O)(=O)NC1CCCCC1)c1ccccc1`, the “hERG current change (%, negative = inhibition) at 10uM” value was -11.9%. Turning to `Cc1c(CCOC(=O)C23CC4CC(CC(C)(C4)C2)C3)sc[n+]1Cc1ccccc1.[Cl-]`, the “hERG current change (%, negative = inhibition) at 10uM” value is listed as -34.5%.

As for `O=c1cc(CN2CCN(S(=O)(=O)c3ccccc3[N+](=O)[O-])CC2)nc2sccn12`, the “hERG current change (%, negative = inhibition) at 10uM” value was -53.7%.

In the case of `Cc1ccccc1NC(=O)Cn1c(=O)n(CC2CCCO2)c(=O)c2ccccc21` (stereo not shown), the “hERG current change (%, negative = inhibition) at 10uM” value was determined as 13%. For the compound `Cl.Nc1cc(Cl)ccc1Oc1ccc(Cl)cc1`, the “hERG current change (%, negative = inhibition) at 10uM” value stood at 7.63%. With `CC1CCN(C(=O)CSc2nc3c(c(=O)n2C)SCC3)CC1` the figure was -5.95%. `Cc1nnc2n(Cc3ccccc3)c(=O)c3c4c(sc3n12)COC(C)(C)C4`: the “hERG current change (%, negative = inhibition) at 10uM” value is given as -26.4%. As to `CCOc1ccc(C(C)NC(=S)NC2CCCCC2)cc1OCC` (stereo not shown), the “hERG current change (%, negative = inhibition) at 10uM” value is 10.7%. With `CCNS(=O)(=O)c1ccc(CCC(=O)NC2CCCC2)cc1` the figure was 16.2%. With `Cc1ccc(OC(=O)CCC(=O)NC(C)c2ccccc2)cc1` (stereo not shown) the figure was 12.6%. Consider `CCCCCn1c(C(C)NC(=O)CCC)nc2ccccc21` (stereo not shown), for which the “hERG current change (%, negative = inhibition) at 10uM” value is listed as -48.4%. With `COC(CNC(=O)CNC(=S)N(CCCN1CCOCC1)Cc1cccs1)OC` the figure was 6.42%.

As for `Cc1ccc2nc(NC(=O)c3ccc4ncsc4c3)sc2c1`, the “hERG current change (%, negative = inhibition) at 10uM” value came out at 11.7%.

Turning to `O=Cc1cccn1-c1ccccc1`, the “hERG current change (%, negative = inhibition) at 10uM” value is recorded as 12.4%. With `Cc1cc(C)c2cc(C(=O)Nc3ccc(C)c(F)c3)[nH]c2c1` the figure was 16.4%. With `C=CCn1c(NCc2ccco2)nc2ccccc21` the figure was -8.07%; with `O=C(NCc1cccs1)C1CCCN(S(=O)(=O)c2cccc3cccnc23)C1` (stereo not shown), -27.6%; with `CN(C)/C=N/c1sc2c(c1C#N)CC(C)(C)NC2(C)C`, 9.17%. For `Cc1onc(-c2ccccc2)c1C(=O)OCC(=O)c1ccccc1`, the “hERG current change (%, negative = inhibition) at 10uM” value is reported as -8.88%. Take `COc1cc2cc(CCOC(=O)c3ccc(C(F)(F)F)cc3)oc(=O)c2cc1OC`: the “hERG current change (%, negative = inhibition) at 10uM” value was -11.4%. With `CCN(CC)CCCNCC(=O)Nc1cc(C)on1.O=C(O)C(=O)O` the figure was 8.7%. With `O=C(NC(=S)Nc1ccc(Br)cc1)C1CCCCC1` the figure was 6.84%.

Take `Cc1cc(NC(=O)c2cccc(C)c2[N+](=O)[O-])no1`: the “hERG current change (%, negative = inhibition) at 10uM” value is given as 16.1%. With `Cc1cc(C(F)(F)F)nc(SCC(=O)Nc2cc(C)on2)n1` the figure was 1.87%; with `COc1ccccc1C(=O)Nc1nnc(S(=O)(=O)N2CCOCC2)s1`, 8.62%. Take `Cl.NS(=O)(=O)c1ccc(CCNCc2ccccc2OCc2ccc(Cl)cc2)cc1`: the “hERG current change (%, negative = inhibition) at 10uM” value was -73.1%. With `O=C(Cn1cncn1)NCc1cccc(C(F)(F)F)c1` the figure was 20.8%. With `Cc1nc2cc(C(=O)N3CCc4ccccc43)ccc2n1-c1ccc(F)c(F)c1` the figure was -69.7%; with `O=[N+]([O-])c1ccc(C(O)C(CO)NC(=S)Nc2ccccc2)cc1` (stereo not shown), -13.6%; with `CC1=Nn2c(nnc2-c2ccc(F)cc2)SC1`, 6.71%. With `CN1C(=O)/C(=C/c2cccc(Cl)c2)Sc2ccc(C(=O)NCc3cccnc3)cc21` the figure was -18%; with `Cc1ccc2cccc(OCCCOc3ccccc3CO)c2n1`, -0.581%. Consider `COCC(C)N1CCC(n2nccc2NC(=O)CCOc2ccccc2)CC1` (stereo not shown), for which the “hERG current change (%, negative = inhibition) at 10uM” value is -3.26%. As for `CC(OC(=O)c1ccc2c(c1)OCCO2)C(=O)NC1CCCCC1C` (stereo not shown), the “hERG current change (%, negative = inhibition) at 10uM” value was -5.05%. With `CCOc1ccc(Oc2nc(N(CC)CC)nc(N3CCOCC3)n2)nn1` the figure was 5.12%; with `Cc1cc2c(C)nc(-c3ccccc3)nc2o1`, -4.28%; with `O=C(N/C(=C/c1cccs1)C(=O)N1CCOCC1)c1cccs1`, -8.41%.

The values are drawn from publication PMC4336329 (PLoS ONE, 2015).
